According to the supplement of paper PMC12217912:
The list shows a part of the results. Sequences were assembled here from the parent chain. Values near 0.05 are background.

B1: TEV protease; numbered along this chain (parent)
chain: MGESLFKGPRDYNPISSSICHLTNESDGHTTSLYGIGFGPFIITNKHLFRRNNGTLVVQSLHGVFKVKDTTTLQQHLVDGRDMIIIRMPKDFPPFPQKLKFREPQREERICLVTTNFQTKSMSSMVSDTSCTFPSGDGIFWKHWIQTKDGQCGSPLVSTRDGFIVGIHSASNFTNTNNYFTSVPKNFMELLTNQEAQQWVSGWRLNADSVLWGGHKVFMVKPEEPFQPVKEATQL

Variants of: B1
Assay: raw area under fraction-flipped curve 0-4 h after induction (AUC4h, not background-subtracted), DNA-recorder readout of cleavage of the substrate (dimensionless); higher = more cleavage of the substrate by the protease variant
Details: temperature: 34 °C; time window: 0-4 h after rhamnose induction
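Also: Bxb1 expression induced with 0.2% (w/v) L-rhamnose at OD600 near 0.5, cultures sampled hourly, flipped fraction per protease–substrate barcode pair counted by paired-end Illumina sequencing.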

Row | Variant | area with substrate ENLYFQC | area with substrate ENLYFQD | area with substrate ENLYFQG | area with substrate ENLYFQL | area with substrate ENLYFQN | area with substrate ENLYFQP | area with substrate ENLYFQQ | area with substrate ENLYFQR | area with substrate ENLYFQS | area with substrate ENLYFQT | area with substrate ENLYFQV | area with substrate ENLYFQW | area with substrate ENLYFQE | area with substrate ENLYFQH | area with substrate ENLYFQK | area with substrate ENLYFQY | area with substrate ENLYFQI | area with substrate ENLYFQM | area with substrate ENLYFQF
1 | S169R | 0.0755 | 0.0687 | 0.147 | 0.0632 | 0.0632 | 0.0527 | 0.0628 | 0.0829 | 0.0611 | 0.0664 | 0.0469 | 0.0622 | – | – | – | – | – | – | –
2 | W199D | 0.0628 | 0.0682 | 0.0565 | 0.0543 | 0.0762 | – | – | – | 0.0648 | 0.0556 | – | 0.0688 | 0.0661 | 0.0523 | 0.0529 | – | – | – | –
3 | N206T | 0.101 | 0.0715 | – | 0.0606 | 0.0813 | – | 0.0861 | 0.0618 | 0.117 | – | – | 0.0718 | – | – | – | 0.0904 | – | – | –
4 | P9G | – | 0.0752 | 0.0912 | 0.0642 | 0.0837 | 0.0628 | – | 0.0645 | 0.0985 | 0.0659 | 0.0611 | 0.062 | 0.0749 | 0.0711 | – | 0.0732 | 0.0679 | 0.0703 | –
5 | L190G | 0.0928 | 0.123 | 0.151 | 0.0633 | 0.0713 | 0.0739 | 0.0518 | 0.0682 | 0.0775 | – | – | – | – | 0.0654 | 0.0617 | – | 0.0654 | 0.0526 | –
6 | E195F | 0.117 | – | 0.0851 | 0.0333 | 0.0708 | – | – | – | 0.0946 | 0.0656 | 0.0529 | – | 0.0879 | – | – | 0.0946 | 0.0764 | – | –
7 | L205E | 0.0746 | – | – | – | 0.0662 | – | – | 0.104 | 0.0835 | 0.0643 | – | 0.0471 | – | – | – | – | 0.0631 | 0.0621 | –
8 | A196M | 0.114 | 0.0346 | 0.0987 | 0.0651 | 0.0689 | – | – | 0.0577 | 0.115 | 0.0453 | 0.0661 | 0.0653 | – | 0.0748 | 0.0694 | – | – | 0.105 | 0.0893
9 | A196Q | 0.121 | – | 0.0962 | 0.0683 | 0.0908 | 0.073 | 0.0892 | 0.0651 | 0.107 | 0.0591 | 0.0743 | 0.065 | – | – | 0.0709 | 0.0598 | 0.0627 | 0.0806 | –
10 | F117K | 0.111 | – | – | 0.0703 | – | – | 0.0323 | – | 0.0953 | – | 0.0605 | 0.0613 | – | – | 0.0525 | – | 0.0766 | 0.0699 | –
11 | T114P | 0.0715 | – | – | 0.0468 | 0.0563 | 0.0574 | 0.0544 | 0.0607 | 0.0768 | 0.0761 | – | 0.061 | 0.0746 | 0.0539 | – | 0.0827 | 0.0555 | – | –
12 | M125K | 0.128 | 0.0774 | 0.111 | 0.0438 | 0.0765 | – | – | 0.0631 | 0.107 | – | – | 0.0686 | – | 0.09 | 0.0677 | 0.0731 | – | 0.0912 | 0.081
13 | S201L | 0.091 | 0.0645 | – | 0.0677 | – | – | – | 0.0755 | 0.087 | 0.0762 | – | 0.0568 | – | 0.0737 | 0.0382 | – | 0.0613 | – | 0.0915
14 | H215R | 0.0623 | – | 0.0819 | 0.0583 | 0.0654 | 0.0667 | 0.0536 | 0.055 | 0.074 | – | 0.0596 | 0.0645 | 0.0629 | 0.063 | 0.0621 | – | 0.0483 | – | –
15 | E223C | 0.108 | 0.0782 | 0.0704 | 0.0721 | 0.0745 | 0.0566 | 0.0049 | 0.0621 | 0.0928 | 0.0626 | – | 0.088 | – | – | 0.0647 | – | 0.0612 | 0.0682 | –
16 | C131T | 0.145 | – | 0.178 | – | 0.0746 | – | – | 0.0614 | 0.111 | 0.0801 | 0.0604 | – | – | – | – | – | – | – | –
17 | Y179T | 0.0373 | – | 0.0925 | – | – | 0.0938 | – | – | 0.054 | 0.0604 | – | – | – | 0.0523 | 0.0664 | 0.0623 | – | 0.0595 | 0.0517
18 | Y179L | 0.0618 | – | – | 0.0406 | – | – | – | 0.0529 | 0.0589 | 0.0583 | 0.0745 | 0.0496 | – | 0.0477 | – | – | 0.0695 | – | 0.0575
19 | R204W | 0.144 | 0.0699 | 0.101 | 0.0634 | 0.0843 | – | – | 0.0597 | 0.111 | 0.0589 | 0.0506 | 0.06 | – | 0.0777 | 0.0744 | 0.0835 | 0.054 | 0.115 | –
20 | N186E | 0.133 | 0.0443 | – | 0.0803 | 0.064 | – | – | – | 0.0977 | – | – | – | – | 0.0835 | 0.0566 | – | – | 0.0834 | 0.0521
21 | Q151W | 0.107 | 0.0571 | 0.0802 | 0.0683 | 0.0596 | – | – | 0.0565 | 0.088 | 0.0614 | – | 0.0599 | – | 0.0636 | 0.0643 | 0.0717 | 0.06 | – | 0.0615
22 | Q151P | 0.0535 | 0.0529 | 0.0534 | 0.0611 | 0.0838 | – | – | 0.058 | 0.0621 | – | – | – | – | 0.089 | 0.06 | 0.046 | 0.0703 | 0.0587 | 0.048
23 | F133Y | 0.125 | – | – | 0.0696 | 0.0622 | – | – | 0.0573 | 0.107 | 0.0786 | – | 0.066 | – | 0.0791 | 0.0706 | – | – | – | 0.0414
24 | S121L | 0.111 | – | 0.124 | 0.0702 | 0.0509 | – | – | 0.0674 | 0.105 | 0.0661 | 0.0552 | – | – | 0.0765 | 0.0779 | 0.0763 | 0.0616 | 0.0955 | 0.0684
25 | S121V | 0.108 | 0.0347 | 0.102 | 0.0529 | 0.0645 | 0.0331 | – | 0.0533 | 0.102 | 0.0681 | – | 0.0666 | – | – | 0.0672 | 0.0979 | 0.0596 | 0.0557 | 0.0577
26 | K98E | – | 0.0679 | 0.113 | 0.0678 | – | – | – | 0.0588 | 0.114 | – | – | – | – | – | 0.0615 | – | – | – | –
27 | T181A | 0.0939 | 0.11 | 0.102 | 0.0601 | 0.0663 | 0.0604 | 0.0815 | 0.0625 | 0.113 | 0.069 | 0.0384 | 0.0743 | – | – | 0.0679 | 0.0968 | 0.0664 | 0.0871 | –
28 | T181Y | 0.0589 | 0.0349 | – | 0.0434 | 0.0463 | – | 0.0457 | 0.0486 | 0.0565 | – | – | 0.069 | – | 0.0792 | 0.0529 | 0.063 | 0.0525 | 0.0621 | 0.0536
29 | F173L | 0.139 | – | 0.112 | 0.0704 | 0.0717 | – | – | 0.0646 | 0.116 | 0.0708 | 0.0578 | 0.0594 | – | 0.0606 | 0.0649 | 0.0645 | – | – | –
